{
  "source": "paper PMC4336329",
  "about": "(PLoS ONE, 2015)",
  "note": "The campaign covered roughly 310,000 compounds. About 2,200 (0.71%) showed an effect of 50% or more. Effects have a minus sign here. Some of the results follow.",
  "data": [
    {"biological_target": "human ether-à-go-go-related gene (hERG) potassium channel (human, UniProt Q12809)", "sequence (Q12809 whole entry, looked up)": "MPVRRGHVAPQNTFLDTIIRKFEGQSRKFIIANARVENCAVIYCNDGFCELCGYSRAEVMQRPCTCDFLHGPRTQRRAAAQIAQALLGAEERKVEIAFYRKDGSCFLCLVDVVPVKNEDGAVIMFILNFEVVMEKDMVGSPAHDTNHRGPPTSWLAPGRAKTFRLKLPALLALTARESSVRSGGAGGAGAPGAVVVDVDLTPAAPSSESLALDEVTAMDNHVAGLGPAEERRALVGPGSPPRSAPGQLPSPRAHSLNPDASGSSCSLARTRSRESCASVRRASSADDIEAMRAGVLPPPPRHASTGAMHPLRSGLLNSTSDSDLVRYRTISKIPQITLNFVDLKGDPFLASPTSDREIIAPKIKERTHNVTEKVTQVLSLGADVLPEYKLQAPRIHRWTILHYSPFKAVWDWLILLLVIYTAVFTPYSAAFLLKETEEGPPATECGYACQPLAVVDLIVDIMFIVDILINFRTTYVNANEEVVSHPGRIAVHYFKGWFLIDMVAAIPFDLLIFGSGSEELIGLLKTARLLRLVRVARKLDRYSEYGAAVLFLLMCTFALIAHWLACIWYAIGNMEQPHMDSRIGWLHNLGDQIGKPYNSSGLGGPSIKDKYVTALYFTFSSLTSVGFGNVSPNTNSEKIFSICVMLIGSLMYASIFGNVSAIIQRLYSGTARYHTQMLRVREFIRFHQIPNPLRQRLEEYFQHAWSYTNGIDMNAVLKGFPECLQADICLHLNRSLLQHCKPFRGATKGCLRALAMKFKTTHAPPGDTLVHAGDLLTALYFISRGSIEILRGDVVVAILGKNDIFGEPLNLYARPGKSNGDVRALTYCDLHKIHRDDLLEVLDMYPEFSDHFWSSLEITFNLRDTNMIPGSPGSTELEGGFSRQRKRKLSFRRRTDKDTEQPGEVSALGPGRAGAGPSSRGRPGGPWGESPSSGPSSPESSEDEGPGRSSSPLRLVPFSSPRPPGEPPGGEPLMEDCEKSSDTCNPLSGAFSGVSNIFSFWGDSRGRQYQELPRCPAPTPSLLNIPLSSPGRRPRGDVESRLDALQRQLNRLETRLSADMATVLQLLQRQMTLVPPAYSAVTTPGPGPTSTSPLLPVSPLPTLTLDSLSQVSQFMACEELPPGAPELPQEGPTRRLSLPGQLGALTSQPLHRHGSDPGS", "assay": "primary screen, population patch clamp on CHO cells stably expressing hERG", "units": {"hERG current change (%, negative = inhibition) at 1uM": "%"}, "values": [
      {"molecule": "CN(C)S(=O)(=O)c1ccc(S(=O)(=O)N2CCCC2)cc1", "hERG current change (%, negative = inhibition) at 1uM": 11.4},
      {"molecule": "Cc1ccc(NC2=C(Cl)C(=O)OC2OC(=O)c2ccco2)cc1C", "note": "(stereo not shown)", "hERG current change (%, negative = inhibition) at 1uM": 13.3},
      {"molecule": "CCN1/C(=C\\C(=S)Nc2ccccc2)Sc2ccccc21", "hERG current change (%, negative = inhibition) at 1uM": 4.81},
      {"molecule": "Cc1ccc(OCC(=O)Nc2ccc3c(c2)C(=O)N(CCC(=O)O)C3=O)cc1", "hERG current change (%, negative = inhibition) at 1uM": -8.42},
      {"molecule": "CCN1C(=O)[C@H]2[C@@H](c3ccc(-c4ccc5c(c4)OCO5)c(OC)c3)N[C@@](Cc3ccccc3)(C(=O)OC)[C@H]2C1=O.O=C(O)C(F)(F)F", "hERG current change (%, negative = inhibition) at 1uM": 12.9},
      {"molecule": "CCOC(=O)N1CC=C2C(C#N)=C(N)C(C#N)(C#N)[C@H](c3ccc(OC(C)C)c(OCC)c3)[C@H]2C1", "hERG current change (%, negative = inhibition) at 1uM": 0.439},
      {"molecule": "NC(=O)C1CCN(C(=O)C2c3ccccc3C(=O)N3CCc4ccccc4C23)CC1", "note": "(stereo not shown)", "hERG current change (%, negative = inhibition) at 1uM": -8.22},
      {"molecule": "CCOC(=O)c1cc2sc(C)cc2n1CC(=O)N1CCOCC1", "hERG current change (%, negative = inhibition) at 1uM": 14.7},
      {"molecule": "Cc1ccsc1/C=N/NC(=O)CO", "hERG current change (%, negative = inhibition) at 1uM": -3.41},
      {"molecule": "CCCn1c(=O)c(C(=O)NNC(=O)c2cccc([N+](=O)[O-])c2)c(O)c2ccccc21", "hERG current change (%, negative = inhibition) at 1uM": 1.46},
      {"molecule": "Cc1cccn2c(CNCC3OCCc4ccccc43)c(C(=O)N3CCCCC3)nc12", "note": "(stereo not shown)", "hERG current change (%, negative = inhibition) at 1uM": 4.81},
      {"molecule": "CCOC(=O)C1(Cc2ccc(Cl)cc2)CCN(Cc2ccon2)CC1", "hERG current change (%, negative = inhibition) at 1uM": 5.86},
      {"molecule": "CC(C)(C)C(=O)Nc1cccc(-c2cc(-c3c(Cl)cccc3Cl)no2)c1", "hERG current change (%, negative = inhibition) at 1uM": 11},
      {"molecule": "COc1cccc(-n2ccnc2SCC(=O)NCc2ccccc2)c1", "hERG current change (%, negative = inhibition) at 1uM": 9.9},
      {"molecule": "O=c1cnn(Cc2ccc(F)cc2)c2ccccc12", "hERG current change (%, negative = inhibition) at 1uM": 1.88},
      {"molecule": "CCOC(=O)C(=NCCCN(C)C)NNc1cc(C(F)(F)F)ccc1Cl", "hERG current change (%, negative = inhibition) at 1uM": -7.94},
      {"molecule": "O=C(Nc1ccccc1)OCc1cc(-c2ccccc2Cl)on1", "hERG current change (%, negative = inhibition) at 1uM": 2.53},
      {"molecule": "Cn1cnnc1Sc1ccc(S(C)(=O)=O)cc1[N+](=O)[O-]", "hERG current change (%, negative = inhibition) at 1uM": 9.19},
      {"molecule": "COc1ccc(C(=O)NCC(=O)N/N=C/c2ccco2)cc1OC", "hERG current change (%, negative = inhibition) at 1uM": 19.8},
      {"molecule": "Cc1ccn2cc(CCNC(=O)CC3CCCCC3)nc2c1", "hERG current change (%, negative = inhibition) at 1uM": -2.92},
      {"molecule": "CC(C)c1ccc(CN2CCC(Oc3ccc(C(=O)N4CCCC4)cc3)CC2)cc1", "hERG current change (%, negative = inhibition) at 1uM": -33.7},
      {"molecule": "CCc1ccc(C(=O)CCC2CCCCC2=O)cc1", "note": "(stereo not shown)", "hERG current change (%, negative = inhibition) at 1uM": 13},
      {"molecule": "CCOC(=O)c1cc(C)sc1NC(=O)C(c1ccccc1)c1ccccc1", "hERG current change (%, negative = inhibition) at 1uM": 12.1},
      {"molecule": "Cc1ccc(/C=C/C(=O)Nc2cc(S(=O)(=O)N3CCCCCC3)ccc2OCC(F)(F)F)o1", "hERG current change (%, negative = inhibition) at 1uM": -22},
      {"molecule": "Cc1cc(C2(c3cc(C)c(NC(=O)CN4CCOCC4)c(C)c3)CCCCC2)cc(C)c1NC(=O)CN1CCOCC1", "hERG current change (%, negative = inhibition) at 1uM": 6.88},
      {"molecule": "O=c1cc(CSc2nnc(NC3CCCCC3)s2)nc2sccn12", "hERG current change (%, negative = inhibition) at 1uM": -6.23},
      {"molecule": "COCCN1C(=O)N[C@@H](c2ccccc2)[C@H](C(C)=O)[C@H]1C", "hERG current change (%, negative = inhibition) at 1uM": 10.1},
      {"molecule": "CC12CCC(C(=O)N(CC(=O)O)C1=O)C2(C)C", "note": "(stereo not shown)", "hERG current change (%, negative = inhibition) at 1uM": 20},
      {"molecule": "COC(=O)c1ccc(C(=O)OC)c(NC(=O)CN2CCN(c3ccccc3OC)CC2)c1", "hERG current change (%, negative = inhibition) at 1uM": 3.16},
      {"molecule": "Cc1cc(C(=O)OCC(=O)NC(C)c2ccc(F)cc2)c(C)o1", "note": "(stereo not shown)", "hERG current change (%, negative = inhibition) at 1uM": 9.07},
      {"molecule": "COc1cc(C(=O)N/C(=C\\c2cn(S(=O)(=O)N(C)C)c3ccccc23)C(=O)N2CCCC2)cc(OC)c1OC", "hERG current change (%, negative = inhibition) at 1uM": 10.8},
      {"molecule": "CN1CN(C)C(c2ccncc2)=C1c1ccncc1", "hERG current change (%, negative = inhibition) at 1uM": 15.6},
      {"molecule": "Cc1ccc(NC(=O)CN(C)C(=O)Cn2c(=O)oc3ccccc32)cc1", "hERG current change (%, negative = inhibition) at 1uM": 7.84},
      {"molecule": "O=C(COc1ccccc1)N(Cc1cccc(F)c1)C1CCS(=O)(=O)C1", "note": "(stereo not shown)", "hERG current change (%, negative = inhibition) at 1uM": 8.38},
      {"molecule": "CCOc1ccc(NC(=O)C2CCN(S(C)(=O)=O)CC2)cc1", "hERG current change (%, negative = inhibition) at 1uM": 17.5},
      {"molecule": "Cc1ccc(-c2nc(SC(C)C(=O)c3c(N)n(C)c(=O)n(C)c3=O)n[nH]2)cc1", "note": "(stereo not shown)", "hERG current change (%, negative = inhibition) at 1uM": 8.52},
      {"molecule": "O=C(Cc1ccccc1)Nc1ccc(NC(=O)c2cccs2)cc1", "hERG current change (%, negative = inhibition) at 1uM": 7.03},
      {"molecule": "O=C(O)/C(=C/c1ccco1)c1ccccc1", "hERG current change (%, negative = inhibition) at 1uM": 14.9},
      {"molecule": "O=C(Nc1nc(-c2nc3ccccc3s2)cs1)c1ccc(S(=O)(=O)N2CCOCC2)cc1", "hERG current change (%, negative = inhibition) at 1uM": 3.88},
      {"molecule": "Cc1ccc(C(=O)O)cc1N=Nc1c(O)[nH]c(=O)[nH]c1=O", "hERG current change (%, negative = inhibition) at 1uM": 8.92},
      {"molecule": "Cc1ccc(-c2cccc(C3CC=CC4C3C(=O)N(Cc3ccccc3)C4c3ccc4ccccc4c3)c2)cc1", "note": "(stereo not shown)", "hERG current change (%, negative = inhibition) at 1uM": 10.4},
      {"molecule": "Nc1nn2c(-c3ccccc3)cc(=O)[nH]c2c1N=Nc1ccc(O)cc1", "hERG current change (%, negative = inhibition) at 1uM": 7.98},
      {"molecule": "CC1CCN(CC(CS(=O)(=O)c2ccc([N+](=O)[O-])cc2)N2CCC(C)CC2)CC1", "note": "(stereo not shown)", "hERG current change (%, negative = inhibition) at 1uM": -6.72},
      {"molecule": "O=c1[nH]c(CN2CCN(S(=O)(=O)/C=C/c3ccccc3)CC2)nc2ccccc12", "hERG current change (%, negative = inhibition) at 1uM": -18.2},
      {"molecule": "CCCc1nnc(NC(=O)CCS(=O)(=O)Cc2ccccc2)s1", "hERG current change (%, negative = inhibition) at 1uM": -5.08},
      {"molecule": "CCOc1ccc(C(=O)C(C)=O)c(OCC)c1", "hERG current change (%, negative = inhibition) at 1uM": 14.1},
      {"molecule": "CC(C)c1nc(SCc2ccccn2)c2c(=O)n(C)c(=O)n(C)c2n1", "hERG current change (%, negative = inhibition) at 1uM": 8.48},
      {"molecule": "COc1ccc2c(c1OC)C(=O)N1C2SC(C)(C)[C@H]1C(=O)NCCCOC(C)C", "note": "(stereo partly shown)", "hERG current change (%, negative = inhibition) at 1uM": 17.1},
      {"molecule": "CS(=O)(=O)Nc1ccc(Cc2ccc(NS(C)(=O)=O)cc2)cc1", "hERG current change (%, negative = inhibition) at 1uM": -1.62},
      {"molecule": "O=C(O)c1cc(S(=O)(=O)Nc2ccc(OCc3ccccc3)cc2)ccc1Br", "hERG current change (%, negative = inhibition) at 1uM": 13.2},
      {"molecule": "COc1cc2c(cc1OC)CC1(CCCCC1)N=C2.Cl", "hERG current change (%, negative = inhibition) at 1uM": 4.59},
      {"molecule": "COCCn1c(SCC(=O)N(C(C)C)C(C)C)nnc1-c1cc2ccccc2cc1O", "hERG current change (%, negative = inhibition) at 1uM": -1.79},
      {"molecule": "CC1CCN(S(=O)(=O)c2ccc3c(c2)c(=O)c(C(=O)NCc2cccs2)cn3C)CC1", "hERG current change (%, negative = inhibition) at 1uM": 6.3},
      {"molecule": "Cc1ccccc1C(=O)NC(=S)N(C)CCc1ccccn1", "hERG current change (%, negative = inhibition) at 1uM": 9.76},
      {"molecule": "O=C(NCCCN1CCCC1=O)Nc1ccc(Cl)cc1Cl", "hERG current change (%, negative = inhibition) at 1uM": 1.13}
    ]}
  ]
}
